Assay results taken from patent US10662193B2, “Carbazole and carboline compounds for use in the diagnosis, treatment, alleviation or prevention of disorders associated with amyloid or amyloid-like proteins” (AC IMMUNE SA, priority 2014, dated 2020).
At least one structure is not confirmed: it was looked up by name or label, or the drawing left a doubt.

Experiments:
Assay type in all cases: binding
[1] = test system: tau tangles/Aβ plaques on AD brain sections; experiment: Assay 1: direct staining of human Alzheimer's disease brain sections (fluorescence); parameters: key: − (No); +++ (strong); ++ (good); + (weak); conditions: 100 μM compound; for Direct staining of tau tangles/Aβ plaques on AD brain sections at 100 μM: human AD brain sections, fluorescence, cell does not say tangles or plaques
Procedure: Assay 1 (Fluorescence Based Assay):
(§1) Direct Binding of Compounds of this Invention to Human Alzheimer's Disease Brain Sections and/or Displacement of RefA and Compound B
(§2) Frozen sections with a thickness of […] from the amygdala of donors diagnosed with Braak stage V-VI Alzheimer's Disease (Braak, H.; Braak, E. Acta Neuropathol., 1991, 82, 239-259), were purchased from a commercial provider (Tissue Solutions) and kept at −80° C. until use.
Direct Staining of Human Alzheimer's Disease Brain Sections
Brain sections were encircled with pap pen liquid blocker to reduce the volume of solution for the different incubations. Sections were fixed for 15 min at 4° C. with 4% paraformaldehyde and washed three times 5 minutes with PBS at room temperature. […] To reduce the auto-fluorescence of the tissue, the sections were incubated in a solution of 0.1% Sudan Black (Sigma 199664) in 70% ethanol for 15 min at room temperature in the dark, washed four times for 5 minutes with PBS, and mounted using ProLong Gold Antifade reagent (Invitrogen P36930). Sections were then analyzed on the Nikon Eclipse Ti microscope to detect staining and imaged using Nikon DS-Fi2 camera and NIS-Element AR4.13.1 software.

[2] = test system: Aβ plaques on AD brain section; experiment: Assay 1: displacement of Compound B on human AD brain sections (fluorescence)
Procedure: Direct Binding of Compounds of this Invention to Human Alzheimer's Disease Brain Sections and/or Displacement of RefA and Compound B Frozen sections with a thickness of […] from the amygdala of donors diagnosed with Braak stage V-VI Alzheimer's Disease (Braak, H.; Braak, E. Acta Neuropathol., 1991, 82, 239-259), were purchased from a commercial provider (Tissue Solutions) and kept at -80° C. until use. Displacement of RefA and Compound B Brain sections were mainly treated as described above. Test compounds were, however, incubated on the section at 250 μM in 50% ethanol for 20 min at room temperature, and then directly incubated with the fluorescent reference compounds RefA and Compound B, each at 1 μM in 50% ethanol for 20 min at room temperature. RefA and Compound B stainings were visualized using the 470 nm and 365 nm excitation filters, respectively. Images were acquired, and tangles and plaques quantified using the NIS-Element software. Only those compounds not directly staining tangles or plaques at the same wavelengths as RefA and Compound B were tested in the displacement assay. Structure of Compound B (prepared by a similar procedure described for […] in WO2010/011964): […]

[3] = test system: tau tangles on AD brain section; experiment: Assay 1: displacement of RefA on human AD brain sections (fluorescence); conditions: for Selectivity (tau/Abeta): ratio of competition on tau tangles to competition on Aβ plaques
Procedure: as §1, §2
Displacement of RefA and Compound B
Brain sections were mainly treated as described above. Test compounds were, however, incubated on the section at 250 μM in 50% ethanol for 20 min at room temperature, and then directly incubated with the fluorescent reference compounds RefA and Compound B, each at 1 μM in 50% ethanol for 20 min at room temperature. RefA and Compound B stainings were visualized using the 470 nm and 365 nm excitation filters, respectively. Images were acquired, and tangles and plaques quantified using the NIS-Element software. Only those compounds not directly staining tangles or plaques at the same wavelengths as RefA and Compound B were tested in the displacement assay.
Structure of RefA (Tago et al., J. Label. Compd. Radiopharm. 2013, DOI: 10.1002/jlcr.3133)

| SMILES | Direct staining of tau tangles/Aβ plaques on AD brain sections at 100 μM [1] | Competition on AD brain section tau tangles (1 μM RefA vs. 250 μM compound) [3] | further results |
| --- | --- | --- | --- |
| Cn1c2ccncc2c2ccc(Nc3c(F)cccc3N3CCOCC3)nc21 [Example 15] | − |  |  |
| Cn1c2ccncc2c2ccc(Nc3cc(OCCF)ccn3)nc21 [Example 63] |  | 82%. | Direct staining of tau tangles on AD brain sections at 100 μM [1]: + (tangles); Competition on AD brain section Aβ plaques (1 μM Compound B vs 250 μM compound) [2]: 3%; Selectivity (tau/Abeta) [3]: ~27 fold |
| Cn1c2ccncc2c2ccc(Nc3cc(F)cc(OCCF)c3)nc21 [Example 19] | − |  |  |
| Cn1c2ccncc2c2ccc(Nc3cccc(OC(F)(F)F)c3)nc21 [Example 13] | + |  |  |
| Cn1c2ccncc2c2ccc(Nc3cccc(F)c3N3CCOCC3)nc21 [Example 14] | − |  |  |
| Cn1c2ccncc2c2ccc(Nc3cnn(CCCF)c3)nc21 [Example 48] | − | 96% |  |
| Cn1c2ccncc2c2ccc(Nc3ccnc(F)c3)nc21 [Example 23] |  | 85% | Direct staining of tau tangles on AD brain sections at 100 μM [1]: ++ (tangles); Competition on AD brain section Aβ plaques (1 μM Compound B vs 250 μM compound) [2]: 14%; Selectivity (tau/Abeta) [3]: ~6 fold |
| Cn1c2ccncc2c2ccc(Nc3cccc(OC(F)F)c3)cc21 [Example 38] |  |  | Direct staining of Aβ plaques on AD brain sections at 100 μM ([1]; plaques): + (plaques) |
